Experimental data taken from publication PMC4561423.
No constants are given. Whether binding was seen depends on the method and setting. In cells and extracts the contact can be indirect. Some entries that bind do so weakly or less than the wild type. For some assays here: Sequences can lack the tags named with a protein. Blank lines part the entries; values can stand above or below the molecule they belong to.

By UniProt entry, the sequences of proteins in these tests, tags left out. Where a name states a change or a piece, a line headed by the entry shows the natural chain unless it says otherwise. Chains listed by the source or under a name are the forms on record and can include a tag or linker.
UniProt P70452: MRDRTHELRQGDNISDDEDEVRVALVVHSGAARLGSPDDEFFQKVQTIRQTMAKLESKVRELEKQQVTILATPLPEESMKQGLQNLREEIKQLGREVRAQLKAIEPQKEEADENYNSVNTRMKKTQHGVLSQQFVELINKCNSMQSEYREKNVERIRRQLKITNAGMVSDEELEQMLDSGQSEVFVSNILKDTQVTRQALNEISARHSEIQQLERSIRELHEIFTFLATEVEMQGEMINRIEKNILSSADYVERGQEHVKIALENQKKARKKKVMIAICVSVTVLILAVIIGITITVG
GFP-S-tagged Stx4Δ195-262 (t-SNARE region deletion) (P70452, form named): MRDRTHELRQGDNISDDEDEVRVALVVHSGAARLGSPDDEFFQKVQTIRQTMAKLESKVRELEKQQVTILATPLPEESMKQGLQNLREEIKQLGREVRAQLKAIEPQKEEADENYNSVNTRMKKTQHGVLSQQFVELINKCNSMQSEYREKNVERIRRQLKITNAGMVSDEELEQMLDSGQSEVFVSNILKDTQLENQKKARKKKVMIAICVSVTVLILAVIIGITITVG
GFP-S-tagged Stx4Δ154-194 (linker region deletion) (P70452, form named): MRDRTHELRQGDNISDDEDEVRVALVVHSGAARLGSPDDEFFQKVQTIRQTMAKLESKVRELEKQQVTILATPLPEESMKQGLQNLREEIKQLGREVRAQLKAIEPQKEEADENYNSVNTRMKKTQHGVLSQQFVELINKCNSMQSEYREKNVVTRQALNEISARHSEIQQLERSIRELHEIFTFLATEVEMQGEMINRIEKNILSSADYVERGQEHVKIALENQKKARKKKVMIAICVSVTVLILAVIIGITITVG

Columns and labels:
[1] = molecular target: T1, glucose transporter 4 (GLUT4), endogenous in C2C12 myoblasts (mouse (endogenous in C2C12)) (UniProt P14142); assay: co-IP; endogenous proteins; control or shCdo-transfected C2C12 cells immunoprecipitated with antibody to GLUT4; blots for GLUT4, Stx4 and Cdo
T1 sequence: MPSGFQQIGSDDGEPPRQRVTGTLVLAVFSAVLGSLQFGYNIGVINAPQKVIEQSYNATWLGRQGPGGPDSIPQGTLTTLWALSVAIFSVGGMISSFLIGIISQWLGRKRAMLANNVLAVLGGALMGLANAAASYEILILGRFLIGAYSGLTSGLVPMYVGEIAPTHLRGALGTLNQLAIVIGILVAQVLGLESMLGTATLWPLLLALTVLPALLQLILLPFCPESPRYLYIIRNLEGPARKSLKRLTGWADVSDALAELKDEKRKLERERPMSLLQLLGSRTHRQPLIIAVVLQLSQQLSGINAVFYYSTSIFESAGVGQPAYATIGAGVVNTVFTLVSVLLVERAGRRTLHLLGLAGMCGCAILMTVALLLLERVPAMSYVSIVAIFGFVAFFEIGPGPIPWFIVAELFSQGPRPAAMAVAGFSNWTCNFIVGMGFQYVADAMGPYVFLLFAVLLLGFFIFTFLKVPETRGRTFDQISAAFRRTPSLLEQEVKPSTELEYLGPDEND

[2] = molecular target: T2, Cdo, endogenous in C2C12 myoblasts (mouse (endogenous in C2C12)) (UniProt Q32MD9); assay: co-IP; endogenous proteins; lysates of differentiating C2C12 myoblasts (D0-D3; control pSuper cells at D2) immunoprecipitated with control IgG or anti-Cdo antibody; blots for Stx4, JLP, Bnip2
T2 sequence: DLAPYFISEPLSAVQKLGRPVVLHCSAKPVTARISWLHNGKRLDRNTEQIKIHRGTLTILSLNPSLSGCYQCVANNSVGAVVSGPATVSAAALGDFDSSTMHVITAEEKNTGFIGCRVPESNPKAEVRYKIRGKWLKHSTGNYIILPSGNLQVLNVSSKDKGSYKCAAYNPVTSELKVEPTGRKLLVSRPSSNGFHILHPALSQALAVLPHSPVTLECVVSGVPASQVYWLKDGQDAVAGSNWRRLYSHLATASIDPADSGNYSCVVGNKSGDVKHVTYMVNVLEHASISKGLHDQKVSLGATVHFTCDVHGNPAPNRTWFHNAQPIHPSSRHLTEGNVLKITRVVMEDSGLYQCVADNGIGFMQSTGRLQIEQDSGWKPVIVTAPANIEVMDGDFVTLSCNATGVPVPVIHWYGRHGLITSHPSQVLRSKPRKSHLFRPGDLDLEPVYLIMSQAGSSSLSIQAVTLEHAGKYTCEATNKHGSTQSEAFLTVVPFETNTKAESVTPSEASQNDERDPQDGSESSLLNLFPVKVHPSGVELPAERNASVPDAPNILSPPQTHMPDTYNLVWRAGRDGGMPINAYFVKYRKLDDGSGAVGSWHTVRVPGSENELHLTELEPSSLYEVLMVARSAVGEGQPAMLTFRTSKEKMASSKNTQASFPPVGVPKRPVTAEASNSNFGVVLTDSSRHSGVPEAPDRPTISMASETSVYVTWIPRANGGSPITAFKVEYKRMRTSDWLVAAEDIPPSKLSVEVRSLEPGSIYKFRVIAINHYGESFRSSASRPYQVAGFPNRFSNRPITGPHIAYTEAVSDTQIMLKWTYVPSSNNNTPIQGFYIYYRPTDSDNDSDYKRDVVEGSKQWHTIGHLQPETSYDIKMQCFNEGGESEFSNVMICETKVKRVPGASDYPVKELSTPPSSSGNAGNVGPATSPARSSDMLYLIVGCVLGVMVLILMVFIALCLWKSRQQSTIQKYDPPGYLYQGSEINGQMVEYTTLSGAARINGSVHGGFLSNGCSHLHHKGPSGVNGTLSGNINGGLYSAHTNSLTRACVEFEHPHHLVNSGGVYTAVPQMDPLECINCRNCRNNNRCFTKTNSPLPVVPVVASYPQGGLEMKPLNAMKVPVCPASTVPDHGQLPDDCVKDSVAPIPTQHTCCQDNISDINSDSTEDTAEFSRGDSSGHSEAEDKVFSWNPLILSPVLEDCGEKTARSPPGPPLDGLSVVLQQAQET

[3] = molecular target: myc-tagged Stx4 (Syntaxin 4), full length (aa 1-299) (mouse) (UniProt P70452); assay: co-IP; 293T cells co-transfected with Stx4-myc and Cdo (full length or deletion mutants); whole cell extracts (10 mM Tris-HCl pH 8.0, 150 mM NaCl, 1 mM EDTA, 1 % Triton X-100) incubated with anti-myc and protein G agarose overnight at 4 °C; blot with Cdo antibody
[4] = molecular target: GFP-S-tagged Stx4Δ195-262 (t-SNARE region deletion) (mouse) (UniProt P70452); assay: pull-down; 293T cells co-transfected with Cdo and GFP-S-tagged Stx4 (full length or deletion mutants); cell extracts incubated with anti-S (S-agarose) beads; blot with Cdo or GFP antibodies
[5] = molecular target: GFP-S-tagged Stx4, full length (mouse) (UniProt P70452); assay: as above
[6] = molecular target: GFP-S-tagged Stx4Δ154-194 (linker region deletion) (mouse) (UniProt P70452); assay: as above

B1: CdoΔ986-1048 (receptor, UniProt O35158)
chain: DLATYFISEPLSAVQKLGRPVVLHCSAKPVTARISWLHNGKRLDRNTEQIKIHRGTLTILSLNPSLSGCYQCVANNSVGAVVSGPATVSADALADFDSSTMHVITAEKKNTGFIGCRVPESNPKAEVRYKIRGKWLMYSTGNYIILPSGNLQILNVSSKDKGSYKCAAYNPVTSELKVEPAGRKLLVSRPSSDGFHILHPALSQALAVLPHSPVTLECVVSGVPASQVYWLKDGQDCLSGSNWRRLYSHLATASIDPADSGNYSCVVGNNSSGDVKHVTYTVNVLEHASISKGLHDQKVSLGATVRFTCEVHGNPAPNRTWFHNAQPIRPSSRHLTEGSVLKITGVIMEDSGLYQCMADNGIGFMQSTGRLQIEQDSGQRPVIVTAPANVEVTDGDFVTLSCNATGEPVPVIHWYGRHGLITSHPSQVLRSKSRKSHLFRPGDLDPEPVYLIMSQAGSSSLSIQAVTREHAGKYTCEAVNKHGSTQSEAFLTVVPFETNTKAEPVTPSEASQNDERDPRDGSESGLLNLFPVKVHSGGVELPAEKNASVPDAPNILSPPQTHMPDTYTLVWRTGRDGGMPINAYFVKYRKLDDGSGAVGSWHTVRVPGSESELHLTELEPSSLYEVLMVARSAVGEGQPAMLTFRTSKEKMASSKNTQASFPPVGIPKRPVTSEASNSNFGVVLTDSSRHSGVPEAPDRPTISMASETSVYVTWIPRANGGSPITAFKVEYKRMKSSDWLVAAEDIPPSKLSVEVRSLEPGSIYKFRVIVINHYGESFRSSASRPYQVAGFPNRFSNRPITGPHIAYTEAVSDTQIMLKWTYIPSSNNNTPIQGFYIYYRPTDSDNDSDYKRDVVEGSKQWHTIGHLQPETSYDIKMQCFNEGGESEFSNVMICETKVKRVPGASEYPMKELSTPPSSSGNGGNVGPATSPARSSDMLYLIVGCVLGVMVLILLVFIALCLKGPNGVNGILNGTINGGLYSAHTSSLTRTCVEFEHPHHLVNGGAVYTAVPQMDPLECINCRNCRNNNRCFTKTNSPLPVVPVVASYPQDGLEMKPLGVMKFPVCPVSTVPDGGQIPEECLKDSVAPAPTQRTCRQDNTSDINSDSTEDTAEFNRGDSSGHSEAEDKVFSWSPLILSPVLEDCSEKTAWSPPGPPLDGLSVVLQQAQET
binding [3]: no binding

B3: Cdo (cell adhesion molecule-related, down-regulated by oncogenes), full length, expressed in 293T cells (receptor, UniProt O35158 25-1256)
chain: DLATYFISEPLSAVQKLGRPVVLHCSAKPVTARISWLHNGKRLDRNTEQIKIHRGTLTILSLNPSLSGCYQCVANNSVGAVVSGPATVSADALADFDSSTMHVITAEKKNTGFIGCRVPESNPKAEVRYKIRGKWLMYSTGNYIILPSGNLQILNVSSKDKGSYKCAAYNPVTSELKVEPAGRKLLVSRPSSDGFHILHPALSQALAVLPHSPVTLECVVSGVPASQVYWLKDGQDCLSGSNWRRLYSHLATASIDPADSGNYSCVVGNNSSGDVKHVTYTVNVLEHASISKGLHDQKVSLGATVRFTCEVHGNPAPNRTWFHNAQPIRPSSRHLTEGSVLKITGVIMEDSGLYQCMADNGIGFMQSTGRLQIEQDSGQRPVIVTAPANVEVTDGDFVTLSCNATGEPVPVIHWYGRHGLITSHPSQVLRSKSRKSHLFRPGDLDPEPVYLIMSQAGSSSLSIQAVTREHAGKYTCEAVNKHGSTQSEAFLTVVPFETNTKAEPVTPSEASQNDERDPRDGSESGLLNLFPVKVHSGGVELPAEKNASVPDAPNILSPPQTHMPDTYTLVWRTGRDGGMPINAYFVKYRKLDDGSGAVGSWHTVRVPGSESELHLTELEPSSLYEVLMVARSAVGEGQPAMLTFRTSKEKMASSKNTQASFPPVGIPKRPVTSEASNSNFGVVLTDSSRHSGVPEAPDRPTISMASETSVYVTWIPRANGGSPITAFKVEYKRMKSSDWLVAAEDIPPSKLSVEVRSLEPGSIYKFRVIVINHYGESFRSSASRPYQVAGFPNRFSNRPITGPHIAYTEAVSDTQIMLKWTYIPSSNNNTPIQGFYIYYRPTDSDNDSDYKRDVVEGSKQWHTIGHLQPETSYDIKMQCFNEGGESEFSNVMICETKVKRVPGASEYPMKELSTPPSSSGNGGNVGPATSPARSSDMLYLIVGCVLGVMVLILLVFIALCLWKSRQQSAIQKYDPPGYLYQGSEINGQMVEYTTLSGTARINGSVHGGFLSKGSLSNGCSHLHHKGPNGVNGILNGTINGGLYSAHTSSLTRTCVEFEHPHHLVNGGAVYTAVPQMDPLECINCRNCRNNNRCFTKTNSPLPVVPVVASYPQDGLEMKPLGVMKFPVCPVSTVPDGGQIPEECLKDSVAPAPTQRTCRQDNTSDINSDSTEDTAEFNRGDSSGHSEAEDKVFSWSPLILSPVLEDCSEKTAWSPPGPPLDGLSVVLQQAQET
binding [3]: binds
binding [4]: no binding
binding [5]: binds
binding [6]: binds

Second part, the molecule after the results:

binding [1]: binds
binding [2]: binds
Molecule: Syntaxin 4 (Stx4), endogenous in C2C12 myoblasts (from UniProt P70452 1-298)

binding [3]: no binding
B2: CdoΔ1035-1160 (receptor, UniProt O35158)
chain: DLATYFISEPLSAVQKLGRPVVLHCSAKPVTARISWLHNGKRLDRNTEQIKIHRGTLTILSLNPSLSGCYQCVANNSVGAVVSGPATVSADALADFDSSTMHVITAEKKNTGFIGCRVPESNPKAEVRYKIRGKWLMYSTGNYIILPSGNLQILNVSSKDKGSYKCAAYNPVTSELKVEPAGRKLLVSRPSSDGFHILHPALSQALAVLPHSPVTLECVVSGVPASQVYWLKDGQDCLSGSNWRRLYSHLATASIDPADSGNYSCVVGNNSSGDVKHVTYTVNVLEHASISKGLHDQKVSLGATVRFTCEVHGNPAPNRTWFHNAQPIRPSSRHLTEGSVLKITGVIMEDSGLYQCMADNGIGFMQSTGRLQIEQDSGQRPVIVTAPANVEVTDGDFVTLSCNATGEPVPVIHWYGRHGLITSHPSQVLRSKSRKSHLFRPGDLDPEPVYLIMSQAGSSSLSIQAVTREHAGKYTCEAVNKHGSTQSEAFLTVVPFETNTKAEPVTPSEASQNDERDPRDGSESGLLNLFPVKVHSGGVELPAEKNASVPDAPNILSPPQTHMPDTYTLVWRTGRDGGMPINAYFVKYRKLDDGSGAVGSWHTVRVPGSESELHLTELEPSSLYEVLMVARSAVGEGQPAMLTFRTSKEKMASSKNTQASFPPVGIPKRPVTSEASNSNFGVVLTDSSRHSGVPEAPDRPTISMASETSVYVTWIPRANGGSPITAFKVEYKRMKSSDWLVAAEDIPPSKLSVEVRSLEPGSIYKFRVIVINHYGESFRSSASRPYQVAGFPNRFSNRPITGPHIAYTEAVSDTQIMLKWTYIPSSNNNTPIQGFYIYYRPTDSDNDSDYKRDVVEGSKQWHTIGHLQPETSYDIKMQCFNEGGESEFSNVMICETKVKRVPGASEYPMKELSTPPSSSGNGGNVGPATSPARSSDMLYLIVGCVLGVMVLILLVFIALCLWKSRQQSAIQKYDPPGYLYQGSEINGQMVEYTTLSGTARINGSVHGGFLGQIPEECLKDSVAPAPTQRTCRQDNTSDINSDSTEDTAEFNRGDSSGHSEAEDKVFSWSPLILSPVLEDCSEKTAWSPPGPPLDGLSVVLQQAQET
